Results: PubChem BioAssay AID489012 (National Center for Advancing Translational Sciences (NCATS), 2010)
Inconclusive means that the source gave no clear call. Such entries were picked first, then a sample of the others. Potencies beside an inconclusive call are fits to weak or partial responses and may not hold up. Calls of active or inactive are those of the source. The call rests on the fitted dose curve; in most records, active means well fitted activation curve with a large enough effect; inconclusive means small, poorly fitted or top-dose-only effect; inactive means no such curve, though single readings can be large or run the other way.
Further: nearly all actives have a fitted effect of over 65% in size.
Potency means the concentration at half of the fitted maximal effect; tags describe the fitted curve by direction and shape.
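Wherever activation is given: cAMP rise lowers the TR-FRET signal in lysed cells with PDE4 inhibitor present; 0% = buffer-only basal and 100% = 29 nM porcine relaxin.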

Each compound was assayed against Relaxin receptor 1 (Homo sapiens) (UniProt Q9HBX9) (assay: qHTS Assay for Agonists of the Relaxin Receptor RXFP1: RXFP1 Hit Validation). Conditions: HEK293T-RXFP1 cAMP TR-FRET, 30 min; series mostly up to 115 µM; activation: at the top concentration.
UniProt Q9HBX9, sequence (Q9HBX9 whole entry, looked up): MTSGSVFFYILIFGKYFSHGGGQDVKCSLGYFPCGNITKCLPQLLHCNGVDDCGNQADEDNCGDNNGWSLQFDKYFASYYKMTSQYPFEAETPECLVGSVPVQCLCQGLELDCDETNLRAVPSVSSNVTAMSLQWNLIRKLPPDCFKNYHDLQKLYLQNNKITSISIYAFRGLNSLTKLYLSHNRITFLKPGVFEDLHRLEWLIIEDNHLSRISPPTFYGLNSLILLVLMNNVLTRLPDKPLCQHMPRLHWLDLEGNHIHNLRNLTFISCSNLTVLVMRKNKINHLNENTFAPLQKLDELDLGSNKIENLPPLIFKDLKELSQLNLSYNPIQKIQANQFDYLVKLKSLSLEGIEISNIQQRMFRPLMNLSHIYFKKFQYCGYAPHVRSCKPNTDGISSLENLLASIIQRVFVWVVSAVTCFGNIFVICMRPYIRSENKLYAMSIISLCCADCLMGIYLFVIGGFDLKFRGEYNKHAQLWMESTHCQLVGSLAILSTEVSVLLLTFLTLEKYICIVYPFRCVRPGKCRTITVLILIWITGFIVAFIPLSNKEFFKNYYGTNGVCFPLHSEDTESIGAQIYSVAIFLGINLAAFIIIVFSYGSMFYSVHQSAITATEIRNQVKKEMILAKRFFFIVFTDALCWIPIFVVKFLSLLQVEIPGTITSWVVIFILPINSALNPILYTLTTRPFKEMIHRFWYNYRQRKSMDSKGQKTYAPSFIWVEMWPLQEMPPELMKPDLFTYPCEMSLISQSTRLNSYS
With `NS(=O)(=O)c1cccc(NC(=O)CSc2ncnc3ccccc23)c1` the Potency was inconclusive: 48.9 µM [activator, partial curve]. For `O=[N+]([O-])c1cccc(CSc2nnc3ccccn23)c1`, the Potency was inconclusive: 34.6 µM [activator, partial curve]. With `CCNc1nc(NCC)nc(N(C)/N=C/c2ccco2)n1` the “activation” value was inactive: 7.3%. In the case of `COC(=O)c1c(N2C(=O)CC(Sc3ncccc3C(=O)O)C2=O)sc(C)c1C` (centres undefined), the “activation” value is reported as inactive: -8.76%. `O=C(Nc1ccccc1C(=O)NCCc1ccc(O)cc1)c1ccco1` was tested, and the “activation” value was inactive: -4.47% [at 125 µM]. With `C=CCNc1ncnc2c1ncn2C1OC(CO)C(O)C1O` (centres undefined) the “activation” value was inactive: -29.1%. In the case of `Cc1ccc(CN(C)C(=O)c2ccc3c(c2)NC(=O)CS3)o1`, the “activation” value is reported as inactive: -29.9%. In the case of `NS(=O)(=O)c1ccc(CCNC(=O)C2CCN(c3ncnc4c3nc3n4CCCCC3)CC2)cc1`, the Potency is reported as inconclusive: 34.6 µM [activator, partial curve]. In the case of `Cc1[nH]n(-c2ccc([N+](=O)[O-])cc2)c(=O)c1C=NCCN1CCN(C(=O)C(C)C)CC1`, the Potency is reported as inconclusive: 43.6 µM [activator, partial curve]. For `N#CCCSc1ncnc2c1oc1ccccc12`, the Potency was active: 19.4 µM. In the case of `CC(C)n1cnc2c(N(C)c3cccc(Cl)c3)nc(N(CCO)CCO)nc21`, the “activation” value is reported as inactive: -5.98%. With `O=C(NCc1nnc2c(C(F)(F)F)cc(Cl)cn12)c1cccnc1` the “activation” value was inactive: 24.5%. With `O=C(CN1C(=O)c2ccc(Br)cc2C1=O)NCC1CCCO1` (centres undefined) the Potency was inconclusive: 38.9 µM [activator, partial curve]. `CCC(=O)Nc1ccc(NC(=O)CSc2nc3c(c(=O)n(C)c(=O)n3C)n2CC)cc1` was tested, and the Potency was inconclusive: 38.9 µM [activator, partial curve].
